This is one part of the list.

The subject of one test is HSkMC. The experiment in a line: cytotoxicity call (relative viability < 0.9). The conditions noted are these: 10 µM.
The test system of a further test is HepG2. Briefly: cytotoxicity call (relative viability < 0.9). The conditions noted are these: 10 µM.
The next test relates to S. aureus RN4220. The experiment in a line: growth inhibition call (relative growth <= 0.2). Conditions: 50 µM.

Regarding `COc1ccc(NC(=O)Nc2cccc3c2O[C@H](CN(C)Cc2ccc(-c4ccccc4)cc2)[C@H](C)CN([C@H](C)CO)C3=O)cc1`, the cytotoxicity call in the test with HSkMC and with HepG2 was “active” throughout. Also, in the test with S. aureus RN4220, the growth inhibition call is “inactive”.

For the compound `CN1CC(=O)Nc2ccc([N+](=O)[O-])cc2C1=O`, the cytotoxicity call in the test on HSkMC and with HepG2 was “inactive” in each case. Besides, the growth inhibition call in the test on S. aureus RN4220 is “inactive”.

Regarding `C[C@H]1CCCCO[C@@H](CN(C)CC2CCCCC2)[C@@H](C)CN([C@@H](C)CO)C(=O)c2cc(NC(=O)c3ccccc3)ccc2O1`, the cytotoxicity call in the test with HSkMC and with HepG2 was “inactive” in each case. The growth inhibition call in the test with S. aureus RN4220 is “inactive”.

As to `CC(C)c1noc(CNC(=O)CN)n1`, the cytotoxicity call in the test with HSkMC and with HepG2 was “inactive” throughout. The growth inhibition call with S. aureus RN4220 was “inactive”.

Take `C[C@@H]1CN([C@H](C)CO)C(=O)c2c(c3ccccc3n2C)-c2ccccc2CO[C@@H]1CN(C)Cc1cccc(O)c1`: the cytotoxicity call with HSkMC and with HepG2 was “inactive” each time. Moreover, the growth inhibition call in the test on S. aureus RN4220 was “inactive”.

For the compound `Cc1ccc(N(c2ccc(C)cc2)c2cccnc2)cc1`, the cytotoxicity call with HSkMC and in the test with HepG2 was “inactive” each time. Also, the growth inhibition call in the test on S. aureus RN4220 was “active”.

Turning to `COc1ccc(CN(C)C[C@@H]2Oc3ccc(NC(=O)CCN4CCOCC4)cc3C(=O)N([C@H](C)CO)C[C@H]2C)cc1`, the cytotoxicity call in the test on HSkMC and in the test with HepG2 was “inactive” each time. In addition, the growth inhibition call in the test on S. aureus RN4220 was “inactive”.

In the case of `Cc1cc(N)n(-c2nc(=O)cc(C)[nH]2)n1`, the cytotoxicity call in the test with HSkMC and with HepG2 was “inactive” throughout. In addition, the growth inhibition call in the test with S. aureus RN4220 is “inactive”.

On to `C[C@@H]1CN([C@@H](C)CO)C(=O)c2cc(NC(=O)Nc3cccc4ccccc34)ccc2O[C@@H](C)CCCCO[C@@H]1CN(C)CC1CCCCC1`, for which the cytotoxicity call in the test on HSkMC and with HepG2 was “active” in each case. In the test with S. aureus RN4220, the growth inhibition call is “inactive”.

On to `COc1ccc(S(=O)(=O)Nc2ccc3c(c2)C(=O)N([C@@H](C)CO)C[C@H](C)[C@H](CN(C)Cc2ccccc2)OCCCC[C@H](C)O3)cc1`, for which the cytotoxicity call in the test with HSkMC and with HepG2 was “inactive” throughout. Further, the growth inhibition call in the test on S. aureus RN4220 is “inactive”.

As to `COc1ccc(S(=O)(=O)Nc2ccc3c(c2)C(=O)N([C@@H](C)CO)C[C@@H](C)[C@@H](CN(C)CC2CCCCC2)OCCCC[C@H](C)O3)cc1`, in the test on HSkMC, the cytotoxicity call is “inactive”. Also, the cytotoxicity call with HepG2 is “active”. In the test with S. aureus RN4220, the growth inhibition call was “inactive”.

For `C[C@@H]1CN([C@@H](C)CO)C(=O)c2cc(NC(=O)CCC(F)(F)F)ccc2O[C@@H](C)CCCCO[C@@H]1CN(C)C(=O)Nc1cccc2ccccc12`, the cytotoxicity call with HSkMC and in the test on HepG2 was “inactive” in each case. The growth inhibition call with S. aureus RN4220 is “inactive”.

Take `COc1ccc(CN(C)C[C@@H]2Oc3ccc(NC(=O)CCCCCC(=O)Nc4ccccc4N)cc3CC(=O)N([C@@H](C)CO)C[C@@H]2C)cc1`: the cytotoxicity call in the test with HSkMC and in the test with HepG2 was “inactive” each time. The growth inhibition call with S. aureus RN4220 was “inactive”.

With `C[C@@H]1CN([C@H](C)CO)C(=O)c2cccc(NC(=O)c3nc4ccccc4s3)c2O[C@H]1CN(C)C(=O)Nc1cccc2ccccc12`, the cytotoxicity call with HSkMC and with HepG2 was “inactive” throughout. For the same compound, in the test on S. aureus RN4220, the growth inhibition call was “inactive”.

As for `CN1CCN(C(=O)C[C@@H]2CC[C@H]3[C@@H](COc4ccc(NC(=O)C5CCCCC5)cc4C(=O)N3C)O2)CC1`, the cytotoxicity call in the test with HSkMC and with HepG2 was “inactive” throughout. Moreover, in the test on S. aureus RN4220, the growth inhibition call was “inactive”.

`C[C@H]1CN([C@@H](C)CO)C(=O)c2cc(NS(=O)(=O)c3cccs3)ccc2O[C@@H]1CN(C)S(=O)(=O)c1ccccc1`: the cytotoxicity call in the test on HSkMC and in the test on HepG2 was “inactive” in each case. The growth inhibition call in the test on S. aureus RN4220 is “inactive”.

With `C[C@@H]1CN([C@H](C)CO)C(=O)c2cc(NC(=O)Cn3cnnn3)ccc2O[C@@H]1CN(C)CC1CCCCC1`, the cytotoxicity call in the test with HSkMC and with HepG2 was “inactive” each time. The growth inhibition call with S. aureus RN4220 is “inactive”.

For the compound `C[C@@H]1CN([C@H](C)CO)C(=O)Cc2cc(NC(=O)Nc3ccc4c(c3)OCO4)ccc2O[C@@H]1CN(C)Cc1ccc(C(F)(F)F)cc1`, the cytotoxicity call in the test on HSkMC and with HepG2 was “active” in each case. In the test with S. aureus RN4220, the growth inhibition call was “inactive”.

As for `NCCSC(=S)NC1CCCCCCC1`, the cytotoxicity call in the test with HSkMC and with HepG2 was “inactive” each time. For the same compound, the growth inhibition call with S. aureus RN4220 was “inactive”.

With `Cc1ccc(OC(=O)n2c3ccccc3c3ccccc32)cc1`, the cytotoxicity call in the test on HSkMC and in the test with HepG2 was “inactive” throughout. The growth inhibition call with S. aureus RN4220 was “inactive”.

For `COc1ccc(S(=O)(=O)N(C)C[C@H]2Oc3c(NS(=O)(=O)c4cn(C)cn4)cccc3C(=O)N([C@H](C)CO)C[C@H]2C)cc1`, the cytotoxicity call in the test with HSkMC and in the test on HepG2 was “inactive” each time. In the test on S. aureus RN4220, the growth inhibition call was “inactive”.

As to `Cc1cc(NC(=O)CSc2nnc[nH]2)no1`, the cytotoxicity call with HSkMC and with HepG2 was “inactive” in each case. For the same compound, the growth inhibition call in the test on S. aureus RN4220 was “inactive”.

With `C[C@@H]1CN([C@@H](C)CO)C(=O)Cc2cc(NC(=O)Nc3ccccc3)ccc2O[C@@H]1CN(C)C(=O)Nc1ccc(C(F)(F)F)cc1`, the cytotoxicity call with HSkMC and in the test on HepG2 was “inactive” in each case. Further, in the test on S. aureus RN4220, the growth inhibition call was “inactive”.

As to `COc1ccc(NC(=O)N(C)C[C@H]2OCc3ccccc3-c3c(n(C)c4ccccc34)C(=O)N([C@@H](C)CO)C[C@@H]2C)cc1`, the cytotoxicity call in the test with HSkMC and with HepG2 was “inactive” throughout. Further, in the test with S. aureus RN4220, the growth inhibition call was “inactive”.

Regarding `O=C(O)CNc1ccc(C(=O)O)cc1`, the cytotoxicity call in the test with HSkMC and in the test with HepG2 was “inactive” throughout. For the same compound, in the test with S. aureus RN4220, the growth inhibition call is “inactive”.

Turning to `Cc1noc(C)c1NC(=O)Nc1cccc2c1O[C@@H](CN(C)S(=O)(=O)c1ccccc1)[C@H](C)CN([C@H](C)CO)C2=O`, the cytotoxicity call with HSkMC and with HepG2 was “inactive” in each case. Also, the growth inhibition call in the test on S. aureus RN4220 was “inactive”.

`C[C@@H]1CCCCO[C@H](CN(C)Cc2ccncc2)[C@H](C)CN([C@@H](C)CO)C(=O)c2cc(NC(=O)NC3CCCCC3)ccc2O1`: the cytotoxicity call in the test with HSkMC is “inactive”. Also, the cytotoxicity call in the test on HepG2 is “active”. In addition, the growth inhibition call in the test with S. aureus RN4220 is “inactive”.

As to `CNc1ncnc(Cl)c1N`, the cytotoxicity call with HSkMC and in the test with HepG2 was “inactive” throughout. For the same compound, the growth inhibition call in the test with S. aureus RN4220 is “inactive”.

For `NC1=NNC(=O)C1`, the cytotoxicity call in the test on HSkMC (human skeletal muscle cells) and in the test on HepG2 was “inactive” each time. Moreover, the growth inhibition call with S. aureus RN4220 is “inactive”.

(Values after the antibiotic and cytotoxicity screens of Wong et al. (2023).)
